Laboratory results from the supplement of paper PMC3334620.
The full ranking holds about 33,000 sequences; the median of “E-score (-0.5 to 0.5)” is about -0.04, and the highest 2% start at about 0.36. The list shows a part of the results.

target: T1, Hmlalpha2 (UniProt P0CY09); assay: PBM E-score (8-mer binding enrichment) (E-score (-0.5 to 0.5)); higher = stronger / more preferred TF binding; most listed sequences are background and not binding sites; details: protein concentration: 200 nM; construct: GST-full length
T1 sequence: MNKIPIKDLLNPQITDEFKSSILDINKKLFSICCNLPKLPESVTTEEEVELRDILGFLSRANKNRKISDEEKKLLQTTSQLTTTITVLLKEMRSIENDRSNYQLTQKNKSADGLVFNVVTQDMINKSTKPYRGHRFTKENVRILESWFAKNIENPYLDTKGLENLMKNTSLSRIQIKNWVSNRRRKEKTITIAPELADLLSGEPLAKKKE
How it was run: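 Universal all-10-mer Agilent arrays, double-stranded by primer extension on fresh or once-stripped slides, were probed with about 100-200 nM GST-tagged yeast transcription factors made by PURExpress. Fluorescent anti-GST detected bound protein, and masliner normalised the scans. E-scores from the Universal PBM Analysis Suite were given to each ungapped eight-base word pooled with its reverse complement.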

In order of rising “PBM E-score” value:
1. CTCTCCAC  -0.404
2. AGGCTGCC  -0.401
3. CCGGTGGC  -0.397
4. CCACGGTC  -0.326
5. GTCCGCCA  -0.307
6. AGGCTCGG  -0.305
7. AGTGAGGA  -0.289
8. AAGACGGT  -0.287
9. CTAAGGGC  -0.287
10. GGGTTCTA  -0.284
11. TCCCCACA  -0.283
12. GCCGCAGA  -0.278
13. GCTTTGCC  -0.273
14. AGAGTGCC  -0.257
15. AGTCCCTA  -0.254
16. AAAAGCCC  -0.245
17. CGGGGCGC  -0.244
18. CTCAGGGA  -0.243
19. CCCGACTA  -0.238
20. CAGCGCAC  -0.234
21. GCGCAGGA  -0.231
22. CCTTACCC  -0.228
23. AGCCTCAA  -0.226
24. GCACTGGA  -0.225
25. CTCGACGA  -0.223
26. GGCGCTAC  -0.215
27. ACGACCAT  -0.214
28. CTCCGCTC  -0.21
29. CCTGCTCG  -0.21
30. CGGGCACA  -0.204
31. ATATGGCC  -0.203
32. CGACCGCC  -0.201
33. CCAAACCC  -0.201
34. GGCCACAC  -0.191
35. GCCGATAA  -0.188
36. CGGGCGTC  -0.187
37. TGCACCAA  -0.186
38. CGGATCGA  -0.185
39. CCCACCCG  -0.176
40. CTCCAGGA  -0.168
41. ATGCGCAG  -0.163
42. AAGGCAGG  -0.162
43. CGGACCCA  -0.162
44. GCCTTCTA  -0.161
45. CGGCGGAG  -0.16
46. AACCTGGG  -0.158
47. CACCTCTG  -0.156
48. GCCAATCC  -0.151
49. CCATCCGA  -0.148
50. GTTTCCAA  -0.146
51. GCTCCCAA  -0.146
52. GCAAGGCA  -0.146
53. CCAACCCA  -0.142
54. AACAGGCC  -0.142
55. AGCAGTTG  -0.136
56. CAGCCAAC  -0.134
57. AGCGGCGA  -0.134
58. AGAAACCG  -0.134
59. AAGTGATA  -0.134
60. GCTCGCCA  -0.129
61. AAGGAATC  -0.128
62. CGATCAGA  -0.124
63. ACGGCGGG  -0.123
64. CAAGGGTA  -0.123
65. GGAGCAAA  -0.115
66. ACGACCCT  -0.115
67. TCAGCTCA  -0.113
68. CTCCGGTA  -0.112
69. ATGCGGCA  -0.106
70. CAAGCCTC  -0.106
71. GGCAGCTA  -0.104
72. ATTGCCGG  -0.104
73. ACAGGCAG  -0.103
74. GATCGCTA  -0.102
75. AGAGTTGC  -0.0989
76. AATACCCT  -0.0975
77. AGAGCGTC  -0.0864
78. ACCCAATG  -0.0835
79. GGGTCAAA  -0.0776
80. CACGGAGA  -0.0771
81. CATACACC  -0.076
82. ATTGCCTC  -0.0708
83. AAAGGCGA  -0.0613
84. CCCGCACA  -0.0612
85. ATTCAGGC  -0.0534
86. ATGCTTCC  -0.0517
87. ACCTTATC  -0.0389
88. CATCAATG  -0.0383
89. GCAGGGGC  -0.0353
90. CGGAGAGC  -0.0282
91. AATGCTTG  -0.0267
92. TCGGGAAA  -0.0258
93. TTCAGAAA  -0.0245
94. AATCCAAC  -0.0243
95. AATATTCT  -0.0233
96. GCTTCCAA  -0.0216
97. AGGTGGTA  -0.0201
98. GTGCATCA  -0.0186
99. AACTTACC  -0.0186
100. GACTAAAA  -0.0161
101. GAAAACTA  -0.00823
102. GTCTGATA  -0.0071
103. AAAGTAGA  -0.0055
104. CGAATATA  -0.00331
105. CATACGAG  -0.00242
106. AAAGTCTG  -0.00127
107. AGCTAAAT  -0.00085
108. GTTGTGCA  -0.00044
109. ATAGGATA  0.0006
110. AAGTTTCG  0.00249
111. ACGGCATC  0.00564
112. ACGTTTCT  0.00591
113. ATAATCAA  0.00678
114. AAGCCAAT  0.0102
115. CTGTTCAC  0.0138
116. CATTTCAG  0.0157
117. GCAGATGC  0.017
118. ACGTGGCT  0.0222
119. AGGTCAAT  0.0276
120. ACGGATCA  0.0285
121. CACAGGCG  0.034
122. CCGGTATA  0.0399
123. CAGAACTG  0.0458
124. TAATTGGA  0.049
125. TCGTTGCA  0.0513
126. AAAGCTTG  0.0544
127. CTATATAA  0.0612
128. CGGATAAA  0.0623
129. CTTCTATA  0.0651
130. AGTCAATA  0.0743
131. ATTACCCG  0.0829
132. GCGAATGA  0.0849
133. AACTTCGT  0.0882
134. TTGCTAAA  0.0913
135. ACCTCAAT  0.0952
136. GCAAAGTA  0.1
137. GTTAGCGA  0.113
138. CTCGATTA  0.117
139. GGAAACAC  0.119
140. ACTGGTAA  0.122
141. AGCGGTAT  0.123
142. ACGTATAG  0.129
143. AAACGCAT  0.13
144. AACGTTGA  0.149
145. GTTTTTGA  0.15
146. TATTGGAA  0.15
147. GCAATTTA  0.164
148. AAACGTGA  0.168
149. CACTGACA  0.169
150. AAATTCTA  0.181
151. ACACCTGA  0.185
152. CGCTCTAC  0.193
153. TAAAATCA  0.203
154. TATGATAA  0.213
155. AAGGTTGT  0.217
156. GTCTAATA  0.222
157. CTAACAAC  0.225
158. CGATTGTA  0.241
159. CCTATTAC  0.254
160. AGTACTTG  0.265
161. TAACAAAA  0.292
162. ATGTACTC  0.304
163. ACATTGTA  0.304
164. TATGTTCA  0.316
165. AACACACG  0.319
166. ATTTGACA  0.327
167. ACACGGCA  0.339
168. TTAACTAA  0.345
169. ACACGGTG  0.392
170. ACTTTACA  0.429
171. AACATGTT  0.46
172. ATGTAATG  0.479
